# The other results are listed elsewhere or left out. Shown are side measurements of this screen, not its main read-out; they come without a call.
# Tests used:
# Test in all cases: Primary Screen for Target Class Profiling of Small Molecule Inhibitors of Methyltransferases
# [1] = target: Glycine N-methyltransferase (Homo sapiens) (UniProt Q14749); details: purified enzyme, MTase-Glo SAH luminescence; measured here: GNMT inhibition; at 40 µM; stronger effect = lower value
# Text: (§1) PI: Matthew D. Hall Ph.D. and Quinlin M. Hanson Ph.D.
# (§2) National Center for Advancing Translational Sciences (NCATS)
# (§3) National Institute of Health (NIH), Rockville, MD
# (§4) Target class profiling (TCP) is a chemical biology approach amenable to investigating understudied biological targets. TCP is achieved by developing a generalizable assay platform and applying it to screen a curated set of compound libraries against representative members of a target class. Small molecule methyltransferases (SMMTase) are a subclass of methyltransferase that act on metabolites to modulate signaling pathways, metabolize xenobiotics, or balance the available methyl pool. We screened four curated libraries totaling 27,574 unique compounds against the SMMTases nicotinamide N-methyltransferase (NNMT), phenylethanolamine N-methyltransferase (PNMT), histamine N-methyltransferase (HNMT), glycine N-methyltransferase (GNMT), catechol O-methyltransferase (COMT), and guanidinoacetate N-methyltransferase (GAMT). The data generated by this TCP can be leveraged for informed tool molecule development. For example, in the associated publication we identified a chemotype of HNMT-selective inhibitors. Additionally, we identified a putative SMMTase-selective inhibitor with potential as a tool molecule for studying broader methyltransferase biology.
# (§5) High-through put screening assays were developed at the National Center for Advancing Translational Science (NCATS) for the enzymes NNMT, PNMT, HNMT, GNMT, COMT, and GAMT. Enzymatic activity was measured as a function of SAM cofactor conversion using the MTase Glo kit (Promega) for all enzymes. All assays were performed in 1536-well format with substrates and SAM concentrations at KM values. Enzyme concentration and assay timing were optimized for 10-20% SAM conversion. Initial screening of 27,574 compounds was done as single-point assays using the highest compound concentration (40 uM). […] These compounds were replated in 11-point dose response and assayed against NNMT, PNMT, HNMT, GNMT, COMT, GAMT, and a counter-assay. The IC50 and efficacy (maximal response) values were determined for each dose-response curve. These values are also accounted for in the area under the curve (AUC) values.
# (§6) PROTOCOL TABLE (as described by Inglese J, Shamu CE and Guy RK. 2007)
# (§7) SEQUENCE No. (e.g., 1, 2, 3, etc.); […] (e.g., Cells, Incubation, Reagent, etc.); VALUE; DESCRIPTION.
# (§8) 1; Reagent; 2 uL; SMMTase Enzyme (2x) in reaction buffer, columns 1- 48.
# (§9) 2; Reagent; 1 uL; SAM (4x) in reaction buffer, columns 1-48.
# (§10) 3; Controls; 23 nL; DMSO in column 4; sinefungin in DMSO (0 uM - 40 uM) in 7-point 1:2 dilution series (n = 2) in column 2.
# (§11) 4; Compounds; 23 nL; Columns 5-48.
# (§12) 5; Reagent; 1 uL; Substrate (4x) in reaction buffer, columns 2-48.
# (§13) 6; Time; 20-30 min; Incubation.
# (§14) 7; Reagent; 1 uL; MTase-Glo reagent (5X), columns 1-48.
# (§15) 8; Time; 30 min; Incubation.
# (§16) 9; Reagent; 5 uL; MTase-Glo Detection reagent, columns 1-48.
# (§17) 10; Time; 30 min; Incubation, luminescence evolution.
# (§18) 11; Detection; Luminescence; ViewLux uHTS Microplate Imager (PerkinElmer).
# (§19) NOTES (numbers refer to Sequence numbers above)
# (§20) 1, 2, 5. White Medium Binding Greiner 1536-well plates (Cat #789175-F, Greiner Bio-One, Monroe, NC); Reaction buffer: 50 mM Tris, pH 8.0, 3 mM MgCl2, 1 mM EDTA, 50 mM NaCl, 1 mM DTT, and 0.1 mg/mL BSA. Evaporation was prevented by covering assay plates with metal lids containing holes to allow gas diffusion.
# (§21) 1. Six SMMTase were profiled: HNMT, GNMT, PNMT, COMT, NNMT, GAMT
# (§22) 5. The corresponding substrate was used for each enzyme: HNMT - 5.3 uM Histamine; GNMT - >500 uM Glycine; PNMT - 16.2 uM Norephinephrine; COMT - 13.7 uM Norephinephrine; NNMT - 3.8 uM Nicotinamide; GAMT - 2.5 uM Guanidinoacetate.6, 8, 10. Room temperature
# (§23) 6. Final reaction conditions: 10 nM COMT, 5 uM SAM, 15 uM norepinephrine, 50 mM Tris, pH 8.0, 3 mM MgCl2, 1 mM EDTA, 50 mM NaCl, 1 mM DTT, and 0.1 mg/mL BSA; refer to tables 2 and S1 for specific timing.
# 8. […]
# [2] = target: Guanidinoacetate N-methyltransferase (Homo sapiens) (UniProt Q14353); details: purified enzyme, MTase-Glo SAH luminescence; measured here: GAMT inhibition; at 40 µM; stronger effect = lower value
# Text: as §1, §2, §3, §4, §5, §6, §7, §8, §9, §10, §11, §12, §13, §14, §15, §16, §17, §18, §19, §20, §21, §22, §23
# 8. […]
# [3] = target: Histamine N-methyltransferase (Homo sapiens) (UniProt P50135); details: purified enzyme, MTase-Glo SAH luminescence; measured here: HNMT inhibition; at 40 µM; stronger effect = lower value
# Text: as §1, §2, §3, §4, §5, §6, §7, §8, §9, §10, §11, §12, §13, §14, §15, §16, §17, §18, §19, §20, §21, §22, §23
# 8. […]
# [4] = target: Nicotinamide N-methyltransferase (Homo sapiens) (UniProt P40261); details: purified enzyme, MTase-Glo SAH luminescence; measured here: NNMT inhibition; at 40 µM; stronger effect = lower value
# Text: as §1, §2, §3, §4, §5, §6, §7, §8, §9, §10, §11, §12, §13, §14, §15, §16, §17, §18, §19, §20, §21, §22, §23
# 8. […]
# [5] = target: Phenylethanolamine N-methyltransferase (Homo sapiens) (UniProt P11086); details: purified enzyme, MTase-Glo SAH luminescence; measured here: PNMT inhibition; at 40 µM; stronger effect = lower value
# Text: as §1, §2, §3, §4, §5, §6, §7, §8, §9, §10, §11, §12, §13, §14, §15, §16, §17, §18, §19, §20, §21, §22, §23
# 8. […]
# On the % scale 0 is the no-effect control and ±100 the full control effect.
Structure (SMILES),"activity change, negative = inhibition [1]","activity change, negative = inhibition [2]","activity change, negative = inhibition [3]","activity change, negative = inhibition [4]","activity change, negative = inhibition [5]"
COc1cccc(-c2ccc(NC(=O)C3CCCN3Cc3cnn(C)c3)cc2)c1 (stereo not given),-6.07%,-5.33%,-3.86%,-12.6%,-7.17%
Cn1c(=O)c2c(ncn2CC2OCCO2)n(C)c1=O,4.79%,2.57%,7.46%,-9.14%,3.35%
CC1CCC2(C(=O)OC3OC(CO)C(O)C(O)C3O)CCC3(C)C(=CCC4C5(C)CCC(O)C(C)(CO)C5CCC43C)C2C1(C)O (stereo not given),0%,3.45%,5.05%,-9.39%,7.12%
CC(CCC1(O)OC2CC3C4CCC5CC(O[C@@H]6O[C@H](CO)[C@@H](O)[C@H](O)[C@H]6O[C@@H]6O[C@@H](C)[C@H](O)[C@@H](O)[C@H]6O)C(O)CC5(C)C4CCC3(C)C2C1C)CO[C@@H]1O[C@H](CO)[C@@H](O)[C@H](O)[C@H]1O (stereo not given in full),0.436%,-1.1%,5.23%,-11.8%,-4.06%
CN(C)C/C=C/C(=O)Nc1cccc(C(=O)Nc2cccc(Nc3ncc(Cl)c(-c4c[nH]c5ccccc45)n3)c2)c1,-91.1%,-24.5%,-27.2%,-74.6%,-18.5%
CCCn1ncnc1C(C)Nc1cc(C(C)C)nc2cc(C)nn12 (stereo not given),-7.98%,-11.7%,-6.13%,-18%,-0.749%
Cc1noc(C)c1C(=O)N1CC(n2cc(COCc3ccccc3)nn2)C1,-1.52%,-0.877%,1.05%,-4.01%,1.38%
Cc1ccc(C)c(N2CCN(C(=O)CCc3nnc4n(CCC(C)C)c(=O)c5ccccc5n34)CC2)c1,-7.13%,0%,4.39%,-1.55%,-3.38%
CCCC1c2ccc(C)n2CCN1C(=O)Nc1cc(Cl)ccc1OC (stereo not given),-14.7%,-0.354%,-17.6%,-5.5%,-9.83%
O=C(NCC(O)CO)c1ccc(OC2CCN(CCc3ccccc3)CC2)cc1 (stereo not given),-7.81%,-11.3%,-8.32%,-10.3%,0.857%
CC1(C(=O)NC2CCCCC2)Cn2c(cc3occc32)C(=O)N1Cc1cccs1 (stereo not given),-0.663%,7.05%,0.135%,-4.14%,-0.058%
COCCCN1C(=O)c2ccc(-c3ccco3)n2CC1(C)C(=O)NCc1ccccc1 (stereo not given),1.28%,4.21%,3.72%,1.67%,-1.88%
COC(=O)c1cc2n(n1)CC(C)(C(=O)NC1CCC(C)CC1)N(CCc1cccs1)C2=O (stereo not given),-2.99%,6.36%,-10.3%,-2.51%,0.988%
CC1=CC(=O)[C@]2(O[C@@H]3O[C@@H](C)[C@H](O)[C@@H](O)[C@H]3O)C=CO[C@@H](O[C@@H]3O[C@H](CO)[C@@H](O)[C@H](O)[C@H]3O)[C@H]12,-0.406%,2.28%,-1.87%,-8.78%,-0.834%

# — PubChem BioAssay AID1745853 (National Center for Advancing Translational Sciences (NCATS), 2022)
